# Reference: PMC7819943, “Rice protein-binding microarrays: a tool to detect cis-acting elements near promoter regions in rice”
# The other results are listed elsewhere or left out.
# Biological target: T1, OsWOX13 (Oryza sativa, UniProt Q5QMM3 1-267)
# T1 sequence: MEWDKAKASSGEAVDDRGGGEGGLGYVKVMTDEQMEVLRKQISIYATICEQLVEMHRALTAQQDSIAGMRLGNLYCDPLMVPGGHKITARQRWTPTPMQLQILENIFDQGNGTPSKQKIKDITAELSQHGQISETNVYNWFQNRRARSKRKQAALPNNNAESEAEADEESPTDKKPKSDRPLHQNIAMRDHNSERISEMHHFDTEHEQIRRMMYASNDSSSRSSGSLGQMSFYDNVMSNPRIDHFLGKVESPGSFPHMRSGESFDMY
# Experiment: protein-binding microarray (RPBM); PBS, 2% BSA, 51.3 ng/ul salmon testes DNA, 50 uM zinc acetate, 200 nM TF, 25 C, 1 h; high values mean tight binding
# Conditions: protein: recombinant; tags: N-terminal polyhistidine and DsRed monomer fusion (pET32a); label: CyDye5-dUTP incorporated in the synthesized complementary strand; 3' TTTTT single-stranded linker to array surface; dsDNA, one strand shown
# Outline: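 Polyhistidine-tagged DsRed fusions of transcription factors, joined at the N-terminus, were expressed in E. coli BL21-CodonPlus and isolated on Ni–NTA. They were incubated at 200 nM for 1 h at 25 °C on a custom Agilent array, double-stranded and BSA-blocked, in PBS with 2% BSA, salmon testes DNA and 50 µM zinc acetate. The binding signal is per-feature fluorescence intensity (arbitrary units) read on an Axon 4000B scanner after washing.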
row,Sequence,binding signal
1,GGCAGATGATTACGAGGTGAGGCATGGTTGGGAAGAGAGTCGGAGTCACCTAGTGCAG,6330 fluorescence intensity (a.u.)
2,TTTAAATGGATGATAAGTAGAATTATGTATCCTGCCAAGACGGAGTCACCTAGTGCAG,7030 fluorescence intensity (a.u.)
3,GGACAGTCATCAATCATCCGTCGATTGGCCTGAGGTTGCTCGGAGTCACCTAGTGCAG,27300 fluorescence intensity (a.u.)
4,TATAAATTGAAACCATTGAACGTACTCCCAACTTCCCAATCGGAGTCACCTAGTGCAG,28600 fluorescence intensity (a.u.)
5,TTTGATATATCATTTAGAAATAAGATATGCCAAAGCCAGTCGGAGTCACCTAGTGCAG,4380 fluorescence intensity (a.u.)
6,GCATAGATTATTATGCAGAAAGTTCATGTATATGACCAGCCGGAGTCACCTAGTGCAG,6640 fluorescence intensity (a.u.)
7,CTGTGATTGATTATACTTACTGTTTGAATTTTGAATCACCCGGAGTCACCTAGTGCAG,43800 fluorescence intensity (a.u.)
8,CTAATTTGTGAAGATCATTACAATCAGACGTAATTATTGTCGGAGTCACCTAGTGCAG,10800 fluorescence intensity (a.u.)
9,AATTTTCCATTTTGAAAATTGACGGAAGTAGTCGCCTATCCGGAGTCACCTAGTGCAG,3480 fluorescence intensity (a.u.)
10,GTAACTACATTATAAATTATATATGTATAAGAAATGTTAACGGAGTCACCTAGTGCAG,3820 fluorescence intensity (a.u.)
11,ACTGATACATTGAATTAGTAATATTCTAGCTTTAGTTTATCGGAGTCACCTAGTGCAG,3420 fluorescence intensity (a.u.)
12,TCCCTGATTTGCTTGTTTGCGTTAAGTAGTACAGAAAACCCGGAGTCACCTAGTGCAG,34000 fluorescence intensity (a.u.)
13,AATTGATTATAAATGATTTAGAGGTATTTCCTGCTATACTCGGAGTCACCTAGTGCAG,47800 fluorescence intensity (a.u.)
14,TTAAATTAACTCTATCATATGCTATACTTTGACTATTAATCGGAGTCACCTAGTGCAG,18600 fluorescence intensity (a.u.)
15,ACGCCAAATTGACCAACATATAGCACTAGCTCCAAATAAACGGAGTCACCTAGTGCAG,4370 fluorescence intensity (a.u.)
16,GGATTAAATGGAGAAAATTTCAAATTGAGTTATTTGATGGCGGAGTCACCTAGTGCAG,24500 fluorescence intensity (a.u.)
17,TCATGATTTGACAATATGGTGATACAGTAAACATTTACTACGGAGTCACCTAGTGCAG,14800 fluorescence intensity (a.u.)
18,CGATGATTGCTCTAAATTATATGCACCTCTCGGAATGATGCGGAGTCACCTAGTGCAG,39400 fluorescence intensity (a.u.)
19,ACAAATTATCCATGTGTAATTAGTACCAAAGTATTTGTGTCGGAGTCACCTAGTGCAG,25500 fluorescence intensity (a.u.)
20,CATTACAATTATAAGTTATTGAATGTGTTTATTTCGAAGCCGGAGTCACCTAGTGCAG,6780 fluorescence intensity (a.u.)
21,CTCCTAATTTAGTCACTTATGGAGCTCTGATAGCTGGATGCGGAGTCACCTAGTGCAG,14200 fluorescence intensity (a.u.)
22,CTTGTGTAATCAATCATTGATCGCCAGTGAGGGAAGGAAGCGGAGTCACCTAGTGCAG,30600 fluorescence intensity (a.u.)
23,GTGTAATTACACTACGATTGTACTGTAATTACATCTGTCACGGAGTCACCTAGTGCAG,29900 fluorescence intensity (a.u.)
24,ACACACAGCGGCAAAATTGACACATTACACATCAGGAATCCGGAGTCACCTAGTGCAG,5060 fluorescence intensity (a.u.)
25,GTACTAATTAAATTGACATTAACCTAATTGCCGGTCAAATCGGAGTCACCTAGTGCAG,42100 fluorescence intensity (a.u.)
26,GGGATTTGGTGAGCGATTGATTCGATTCGATTGGATTCGACGGAGTCACCTAGTGCAG,4740 fluorescence intensity (a.u.)
27,CAAACTGTACCAATCAAAATAATGATAATGCCGTCCCAAACGGAGTCACCTAGTGCAG,12800 fluorescence intensity (a.u.)

row,Sequence,binding signal
1,GACAATGTAATTGAACATGAGGCTTGTCCAGATACATTCTCGGAGTCACCTAGTGCAG,7280 fluorescence intensity (a.u.)
2,TTTGGTTGAAATTGAAACGATGTGATGGAAAAGTTGGAAGCGGAGTCACCTAGTGCAG,5010 fluorescence intensity (a.u.)
3,ACTGATTGGGATGCCACGTCAACGAAACTAGATATCCATACGGAGTCACCTAGTGCAG,33700 fluorescence intensity (a.u.)
4,TCAAGGGGATTCCTCAATTAACGCTTTTCTTATAGGATATCGGAGTCACCTAGTGCAG,5150 fluorescence intensity (a.u.)
5,CTCTAATGGGACTTGTTAATTAATTTTCTCCTGATTCTTGCGGAGTCACCTAGTGCAG,19600 fluorescence intensity (a.u.)
6,TAATAAATTTGACTAGTTATTCAACTTTGACATAAAATCCCGGAGTCACCTAGTGCAG,11500 fluorescence intensity (a.u.)
7,GCCTTAATACATATAATTACTAGGACAAATGTATACATGCCGGAGTCACCTAGTGCAG,12300 fluorescence intensity (a.u.)
8,GAACAGTATATTTTCAAATTTAATTGGGGAATGACATTGACGGAGTCACCTAGTGCAG,5930 fluorescence intensity (a.u.)
9,GATTCCAGCCAATTGACTGTGTTCCTTGATGATTATACCACGGAGTCACCTAGTGCAG,4340 fluorescence intensity (a.u.)
10,TCAAGATAAAATGATTTTCTAATTGCATGGGTTGTCATTACGGAGTCACCTAGTGCAG,14600 fluorescence intensity (a.u.)
11,GCATTTCTTTAATTTCTTGCTCTCCATTCTCATTCCCAATCGGAGTCACCTAGTGCAG,3310 fluorescence intensity (a.u.)
12,ACAATAATATAAATCAAACGATTTGACAAGTTTTCCGGAACGGAGTCACCTAGTGCAG,11300 fluorescence intensity (a.u.)
13,ATTTGTACGATAAATTGAGAGATGTAATGTGAACTTATTCCGGAGTCACCTAGTGCAG,3920 fluorescence intensity (a.u.)
14,AATATTTTCAAGCATCAATCACTGTTTACAGTACGGCACACGGAGTCACCTAGTGCAG,8430 fluorescence intensity (a.u.)
15,GTGATGATGAATTAATTGCTGAATGGCGAATGCAGTGCAGCGGAGTCACCTAGTGCAG,58900 fluorescence intensity (a.u.)
16,CAGTACAATTAGACACATGTAACTGGCAAAACTAAATCATCGGAGTCACCTAGTGCAG,7480 fluorescence intensity (a.u.)
17,AGGTCAATCTTGATAGGCCCAATTACTCCTATTGCTACTACGGAGTCACCTAGTGCAG,6520 fluorescence intensity (a.u.)
18,GGGATGATCAGGGATTAGATTAGTGACAGAGGCCCGATTACGGAGTCACCTAGTGCAG,16600 fluorescence intensity (a.u.)
19,TGGTGACTGTAACAAAATGTTAGGAACTCAATTGGGTTGTCGGAGTCACCTAGTGCAG,8980 fluorescence intensity (a.u.)
20,GTAGATATTGATGATTTATATAACTTTGTTGTTGATGACTCGGAGTCACCTAGTGCAG,14500 fluorescence intensity (a.u.)
21,TATAAATTTTAAATCTTAATTTCAGAGTTGATTTTGATTCCGGAGTCACCTAGTGCAG,20400 fluorescence intensity (a.u.)
22,GCAATTATCTTGATGACATAATGTTGTATTATATAGAAATCGGAGTCACCTAGTGCAG,4580 fluorescence intensity (a.u.)
23,GCCGCCACCTTCGCCTTTATAAAGCTTACCTTTGCTACCACGGAGTCACCTAGTGCAG,64800 fluorescence intensity (a.u.)
24,TTTCTGATTTCTCCTCCTCTAATTACCGCCTCCTCCTCCTCGGAGTCACCTAGTGCAG,3430 fluorescence intensity (a.u.)
25,GAAAATTATATATTACCTCTGGTACTGTTTGTAATTTAGGCGGAGTCACCTAGTGCAG,9680 fluorescence intensity (a.u.)
26,AAATTTAAATTTTGGTTTATAAACATATGCATAAGCCAAACGGAGTCACCTAGTGCAG,3590 fluorescence intensity (a.u.)
27,TGGACTAATTAGGCTCAAAAGATTCGTCTCGTGATTTTCTCGGAGTCACCTAGTGCAG,11200 fluorescence intensity (a.u.)
